Data published in PubChem BioAssay AID504332 (National Center for Advancing Translational Sciences (NCATS), 2011).
Hit rate of the full screen: of about 350,000 compounds, about 31,000 (8.9%) were called active. Inconclusive means that the source gave no clear call. Such entries were picked first, then a sample of the others. The call rests on the fitted dose curve; in most records, active means well fitted inhibition curve with a large enough effect; inconclusive means small, poorly fitted or top-dose-only effect; inactive means no such curve, though single readings can be large or run the other way. Potencies of inconclusive entries are doubtful fits and often do not repeat.

Target: Histone-lysine N-methyltransferase EHMT2 (Homo sapiens) (UniProt Q96KQ7)
Test: qHTS Assay for Inhibitors of Histone Lysine Methyltransferase G9a; further: nearly all actives have a fitted effect of over 75% in size
Settings: G9a H3K9 monomethylation, AlphaScreen, 2 h; activity, negative = inhibition: at 59 µM (top of the series) unless noted
Method in brief: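 AlphaScreen detection with an anti-monomethyl H3K9 antibody quantified product after a 2 h room-temperature reaction containing 500 nM biotinylated H3K9 peptide, 20 µM SAM and 20 nM enzyme, which had been preincubated 15 min with compound.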
On the % scale 0 is the no-effect control and ±100 the full control effect; potency means the concentration at half of the fitted maximal effect; tags describe the fitted curve by direction and shape.

Sequence of UniProt Q96KQ7 (Q96KQ7 whole entry, looked up): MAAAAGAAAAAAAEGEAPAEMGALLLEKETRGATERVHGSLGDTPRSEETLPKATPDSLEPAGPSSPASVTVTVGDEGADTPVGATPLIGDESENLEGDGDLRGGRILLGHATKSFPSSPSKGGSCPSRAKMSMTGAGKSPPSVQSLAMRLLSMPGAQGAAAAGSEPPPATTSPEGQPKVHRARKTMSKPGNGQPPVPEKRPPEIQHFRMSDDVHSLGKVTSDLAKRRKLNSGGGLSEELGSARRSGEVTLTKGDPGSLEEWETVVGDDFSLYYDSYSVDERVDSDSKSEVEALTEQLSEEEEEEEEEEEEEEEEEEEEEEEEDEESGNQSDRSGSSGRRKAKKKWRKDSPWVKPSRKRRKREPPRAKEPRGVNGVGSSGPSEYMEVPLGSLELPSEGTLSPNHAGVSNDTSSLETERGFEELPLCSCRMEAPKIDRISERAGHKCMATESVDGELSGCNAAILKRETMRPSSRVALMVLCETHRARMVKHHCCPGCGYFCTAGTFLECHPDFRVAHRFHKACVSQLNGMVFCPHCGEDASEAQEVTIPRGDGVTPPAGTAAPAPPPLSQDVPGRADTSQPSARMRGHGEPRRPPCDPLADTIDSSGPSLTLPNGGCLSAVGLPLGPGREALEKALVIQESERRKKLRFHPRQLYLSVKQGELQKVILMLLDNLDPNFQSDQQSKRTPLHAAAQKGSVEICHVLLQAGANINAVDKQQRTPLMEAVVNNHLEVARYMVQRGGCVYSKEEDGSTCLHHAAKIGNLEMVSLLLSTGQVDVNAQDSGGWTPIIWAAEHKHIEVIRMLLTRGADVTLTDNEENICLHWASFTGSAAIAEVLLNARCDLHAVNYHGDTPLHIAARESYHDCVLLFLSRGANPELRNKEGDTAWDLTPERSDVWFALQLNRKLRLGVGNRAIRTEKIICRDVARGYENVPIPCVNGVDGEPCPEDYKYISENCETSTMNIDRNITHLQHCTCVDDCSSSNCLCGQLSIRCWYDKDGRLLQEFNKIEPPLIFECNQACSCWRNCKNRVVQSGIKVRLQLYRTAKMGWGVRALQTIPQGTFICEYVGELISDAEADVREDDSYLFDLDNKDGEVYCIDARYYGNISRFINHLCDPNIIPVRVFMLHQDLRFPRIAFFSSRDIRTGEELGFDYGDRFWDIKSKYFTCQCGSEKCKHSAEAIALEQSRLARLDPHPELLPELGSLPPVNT

Row | SMILES | Potency | activity, negative = inhibition
1 | O=C(NOC(=O)c1c(F)cccc1Cl)c1ccc(Cl)c(Cl)c1 | inconclusive: 50.1 µM [inhibitor, partial curve] | 
2 | Oc1cccc2ccc(Nc3ccccn3)nc12 | inconclusive: 2.82 µM [inhibitor, partial curve, poor fit] | 
3 | CCCCSc1nnc(-c2ccc(NC(=O)CCc3ccccc3)cc2)n1C | inactive | 
4 | COc1cc2c(cc1OC)CN(S(=O)(=O)c1ccc3c(c1)OCCO3)CC2 | inconclusive: 89.1 µM [inhibitor, single point] | 
5 | CCOc1ccc(-c2ccc(NS(=O)(=O)c3cc(C)c(C)cc3C)cc2)nn1 | inactive | 
6 | CC(C)CCNc1ncnc2c1nnn2Cc1ccccc1Cl | inactive | 
7 | O=C(c1cc2c(=O)[nH]c3ccccc3c2s1)N1CCN(c2ccc(F)cc2)CC1 | inactive | 
8 | COc1cc(OC)c(Cl)cc1N | inconclusive: 31.6 µM [inhibitor, single point] | 
9 | O=c1[nH]c(CSc2nnc(-c3ccccc3)n2-c2ccccc2)nc2ccccc12 | inconclusive: 89.1 µM [inhibitor, single point] | 
10 | COc1cc(C(Nc2ccc3c(c2)OCO3)C(=O)NC2CCCCC2)cc(OC)c1OC (stereo unspecified) | active: 2.82 µM | 
11 | Cc1ccc(S(=O)(=O)CCC(=O)N(CCCN2CCOCC2)c2nc3ccccc3s2)cc1 | active: 44.7 µM | 
12 | Cc1nnc2n1N=C(c1ccc(F)cc1F)CS2 |  | inactive: -10.2% [at 2.33 µM]
13 | S=c1[nH]nc(Cc2ccccc2)n1-c1ccccc1 | active: 8.91 µM | 
14 | O=C(CCSCCc1ccccn1)Nc1ccc(Cc2ccncc2)cc1 | inconclusive: 0.631 µM [inhibitor, full curve, poor fit] | 
15 | CCCCC(=O)Nc1ccc(N2CCN(S(C)(=O)=O)CC2)cc1 | inconclusive: 1.78 µM [inhibitor, partial curve, poor fit] | 
16 | S=C(NCc1ccccc1)Nc1cccc2cnccc12 | active: 22.4 µM | 
17 | CCN(c1ccccc1)S(=O)(=O)c1cc(NC(=O)COC(=O)C2CC2)ccc1Cl | inconclusive: 50.1 µM [inhibitor, partial curve, poor fit] | 
18 | O=C(O)C1CC(O)CN1C(=S)Nc1ccccc1 (stereo unspecified) | inconclusive: 39.8 µM [inhibitor, partial curve, poor fit] | 
19 | COc1cccc(NC(=O)c2oc3ccccc3c2NC(=O)C23CC4CC(CC(C4)C2)C3)c1 | inactive | 
20 | CC(C)Cn1c(=S)[nH]c2cc(Cl)ccc21 | active: 6.31 µM | 
21 | CCC(=O)NNc1nc2c(F)cccc2s1 | inconclusive: 35.5 µM [inhibitor, partial curve, poor fit] | 
